In publication PMC4336329 (PLoS ONE, 2015):
Out of some 310,000 compounds screened, about 14,000 (4.5%) showed an effect of 50% or more. The effect is printed as a negative number. Some of the results follow.

These compounds were tested against human ether-à-go-go-related gene (hERG) potassium channel (human, UniProt Q12809) (assay: primary screen, population patch clamp on CHO cells stably expressing hERG).
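Note: peak tail current of the secondary pulse compared with the same well before compound.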

Sequence of human ether-à-go-go-related gene (hERG) potassium channel (Q12809 whole entry, looked up): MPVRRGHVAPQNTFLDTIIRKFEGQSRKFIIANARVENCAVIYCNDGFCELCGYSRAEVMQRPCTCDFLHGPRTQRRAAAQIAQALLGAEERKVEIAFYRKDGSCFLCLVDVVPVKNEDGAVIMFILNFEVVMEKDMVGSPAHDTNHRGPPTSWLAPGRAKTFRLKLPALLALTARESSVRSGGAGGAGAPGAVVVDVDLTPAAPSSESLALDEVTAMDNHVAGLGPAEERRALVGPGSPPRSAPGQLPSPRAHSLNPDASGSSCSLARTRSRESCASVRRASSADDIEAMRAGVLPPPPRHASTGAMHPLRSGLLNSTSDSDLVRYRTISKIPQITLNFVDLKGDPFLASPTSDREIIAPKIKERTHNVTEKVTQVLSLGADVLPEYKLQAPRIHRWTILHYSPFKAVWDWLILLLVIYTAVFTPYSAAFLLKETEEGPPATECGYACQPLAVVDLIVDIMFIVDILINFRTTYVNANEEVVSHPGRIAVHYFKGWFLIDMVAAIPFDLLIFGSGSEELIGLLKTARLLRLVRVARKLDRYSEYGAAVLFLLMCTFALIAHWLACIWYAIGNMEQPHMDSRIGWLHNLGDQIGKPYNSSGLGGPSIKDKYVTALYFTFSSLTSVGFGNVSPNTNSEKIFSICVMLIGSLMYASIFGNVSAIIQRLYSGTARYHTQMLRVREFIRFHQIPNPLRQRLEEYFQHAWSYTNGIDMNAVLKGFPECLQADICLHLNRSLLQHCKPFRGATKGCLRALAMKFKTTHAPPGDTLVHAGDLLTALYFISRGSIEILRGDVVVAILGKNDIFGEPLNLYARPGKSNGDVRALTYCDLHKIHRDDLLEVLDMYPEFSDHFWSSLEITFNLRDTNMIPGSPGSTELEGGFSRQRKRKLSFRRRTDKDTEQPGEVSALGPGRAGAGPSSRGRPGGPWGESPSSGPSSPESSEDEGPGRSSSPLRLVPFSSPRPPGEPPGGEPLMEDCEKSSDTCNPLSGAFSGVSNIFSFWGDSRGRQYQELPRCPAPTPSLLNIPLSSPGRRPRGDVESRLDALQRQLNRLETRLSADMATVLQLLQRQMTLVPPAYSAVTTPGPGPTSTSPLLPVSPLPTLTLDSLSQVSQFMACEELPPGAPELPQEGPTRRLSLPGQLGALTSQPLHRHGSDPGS

| SMILES | hERG current change (%, negative = inhibition) at 10uM [%] |
| --- | --- |
| Cc1ccc(NC(=O)CCCn2c(=O)oc3ccccc32)c(O)c1 | -12.3 |
| COC/C=C/C1=CC2=CC(=O)C(C)(OC(=O)c3cnc4ccccc4n3)C(=O)C2=CN1Cc1ccc(OC)cc1 (stereo not drawn) | 0.29 |
| Cc1cccc(OCC(=O)N(Cc2cccs2)C2CCS(=O)(=O)C2)c1 (stereo not drawn) | -15.8 |
| Cc1ccc(S(=O)(=O)n2c([N+](=O)[O-])cnc2C)cc1C | 18 |
| CS(=O)(=O)c1ccc2nc(NC(=O)CCN3C(=O)c4ccccc4C3=O)sc2c1 | 26.7 |
| CC(C)CC(C(=O)NC1CCCC1)N(Cc1cccs1)C(=O)c1snc(C(N)=O)c1N (stereo not drawn) | -40.5 |
| Cc1nc(SCC(=O)c2ccc(F)c(F)c2)[nH]c(=O)c1Oc1ccc(F)cc1 | -16.1 |
| CC(C(=O)Nc1ncc2c(n1)CC(C)(C)CC2=O)N1C(=O)c2ccccc2C1=O (stereo not drawn) | -19.4 |
| O=C(NNC(=O)c1ccccc1Br)c1ccc(Cl)c(Cl)c1 | -6.54 |
| CCC12CN3CCN(CC(C3)/C1=N\NC(=O)c1ccc(Cl)cc1)C2 | 11.5 |
| Cc1ccc(O)c(NC(=O)c2cc3nc4c(c(C(F)(F)F)n3n2)CCc2ccccc2-4)c1 | -15.3 |
| O=C(CSc1nnc(-c2ccc(O)cc2)n1Cc1ccccc1)NNC(=O)c1ccc(Br)cc1 | -4.24 |
| COC(=O)c1ccc(COC(=O)c2ccc(S(=O)(=O)N3CCC(C)CC3)cc2)o1 | 5.04 |
| COc1ccc(CCN(CC(=O)NC2CCCC2)C(=O)CCC(=O)Nc2cc(C)on2)cc1OC | 1.84 |
| CCN(CC)NC(=S)Nc1ccccc1 | 11.3 |
| COc1cc(C(F)(F)F)c(C(=O)N(C)c2ccc(Cl)cc2)cn1 | -2.38 |
| Cc1cc(C)n(CC(=O)NNC(=O)COc2ccc(Cl)cc2Cl)n1 | 3.06 |
| COc1cc(OC)c2c(c1)C(=O)OC2 | -10.3 |
| COc1ccc(C)cc1NC(=O)CCCN1C(=S)NC(C)(C)CC1C (stereo not drawn) | 10.2 |
| C=CCOc1cccc(C2/C(=C(\O)c3ccc(F)cc3)C(=O)C(=O)N2CCN(C)C)c1 (stereo not drawn) | 4.14 |
| CC(=O)N1CCOc2cc(S(=O)(=O)N3CCN(c4ccccc4)CC3)c(Cl)cc21 | -21.1 |

| SMILES | hERG current change (%, negative = inhibition) at 10uM [%] |
| --- | --- |
| CCc1c(C(=O)NNC(=S)NCCc2ccccc2)csc1C | 3.19 |
| CC(C)(OC(=O)NC(=O)C(F)(F)F)C(C)(C)OC(=O)NC(=O)C(F)(F)F | 31.4 |
| CCCc1nc2ccccc2c(C(=O)OCc2nnc(-c3cc(OC)c(OC)c(OC)c3)o2)c1CC | 2.49 |
| COC(=O)c1c(-c2ccncc2)csc1NC(=O)c1ccoc1C | -9.35 |
| O=C(NCCc1ccccc1)C(=O)NCC1OCCN1S(=O)(=O)c1ccc2c(c1)OCCO2 (stereo not drawn) | -8.42 |
| Cn1c(=O)oc2cc(S(=O)(=O)N3CCC(C(=O)NCc4ccc(F)cc4)CC3)ccc21 | -8.93 |
| COc1ccc(-c2nc3ccccc3c(=O)n2NC(=O)Cc2ccccc2)cc1 | 5.92 |
| O=C(NCCc1c[nH]c2ccccc12)/C(=C\c1cccnc1)NC(=O)c1ccccc1Br | -65.1 |
| CC(=O)Nc1ccc(NC(=O)CN(c2ccc(C34CC5CC(CC(C5)C3)C4)cc2)S(C)(=O)=O)cc1 | 8.76 |
| Cc1cc(=O)oc2c(C)c(OCC(=O)NCCN3CCOCC3)ccc12 | 10.5 |
| COc1ccc(CCNC(=O)C/C(C)=N/NC(=O)C(c2ccccc2)c2ccccc2)cc1OC | -27.5 |
| COC(=O)c1ccc(COc2cccc(OC)c2)o1 | -4.8 |
| Cc1c(C(=O)N2CCCC2)oc2c1-c1nn(CC(=O)NCCCOC(C)C)cc1CC2 | 10.6 |
| COc1ccc(NC(=S)NNC(=O)C2CC2c2ccc(C)cc2)cc1 (stereo not drawn) | 1.74 |
| O=C(O)c1ccc(-n2nnnc2SCc2cccc(Br)c2)cc1 | 13.2 |
| O=C(Nc1ccon1)c1sc2ccccc2c1Cl | 15.9 |
| CCOC(=O)c1ccc(NS(=O)(=O)c2ccc3oc(=O)[nH]c3c2)cc1 | 6.15 |
| COc1ccc(CCNC(=O)NCCc2c[nH]c3ccccc23)cc1OC | -3.31 |
| NC1=Nc2ccccc2Oc2ccccc21 | -21.9 |
| CCOC(=O)C(C)n1cnc2c(nnn2-c2cccc(Cl)c2)c1=O (stereo not drawn) | -26.3 |
| O=C(c1ccc(S(=O)(=O)Cc2cc(F)ccc2F)c([N+](=O)[O-])c1)N1CCCC1 | -20.7 |

| SMILES | hERG current change (%, negative = inhibition) at 10uM [%] |
| --- | --- |
| Cc1ccc(C23CC4CC(CC(NC(=O)NN)(C4)C2)C3)cc1 | 14.6 |
| CCOC(=O)CSc1ccc(C(=O)N2CCN(C)CC2)cc1[N+](=O)[O-] | 13 |
| CC(=O)NC(Cc1ccccc1)C(=O)N1CCN(C(=O)c2cccs2)CC1 (stereo not drawn) | 1.2 |
| COc1cccc(/C=C/C(=O)OCC(=O)c2ccc3c(c2)NC(=O)CO3)c1OC | -2.12 |
| C[C@]12CCC(=O)C=C1CC[C@@H]1[C@@H]2CC[C@@]2(C)[C@H]1CC[C@]2(O)C(=O)CO | 9.17 |
| CCc1nc(CNC(=O)C2CCC(=O)N(CCc3cccc(F)c3)C2)no1 (stereo not drawn) | 9.82 |
| CCOc1nc(NCCO)nc(NCCC2=CCCCC2)n1 | -12.9 |
| CCOc1ccc(-c2n[nH]c(=S)n2Cc2ccccc2)cc1 | 15.2 |
| CCc1nc(N[C@@H](Cc2c[nH]c3ccccc23)C(=O)O)c2oc3ccccc3c2n1 | 8.39 |
| S=C(NCc1ccccc1)NC1CCCCC1 | 18.8 |
| O=C(COc1ccc(F)cc1)NNC(=O)c1cc2ccccc2oc1=O | -10.3 |
| O=C1CCCc2nn(-c3ccccc3)nc21 | 11.3 |
| CCOc1ccc(S(=O)(=O)NCCC(=O)NCc2ccncc2)cc1 | -26.2 |
| Cc1cc(-c2n[nH]c(=S)n2-c2ccccc2C)cs1 | 18.8 |
| CCOc1cc(/C=N\Nc2nc(Nc3ccccc3)nc(N3CCOCC3)n2)ccc1OC(=O)c1ccco1 | -3.25 |
| CCOc1ccc(NS(=O)(=O)c2ccc3[nH]c(=O)[nH]c3c2)cc1 | 27.4 |
| NC(=O)CC(NC(=O)c1ccccc1)c1ccc(N2CCC(N3CCCC3)CC2)c([N+](=O)[O-])c1 (stereo not drawn) | 8.15 |
| N#CC1=C(N)C(C#N)(C#N)[C@H](c2ccncc2)[C@H]2CN(C(=O)OCc3ccccc3)CC=C12 | -0.261 |
| CCOC(=O)c1c(C)[nH]c(C)c1C(=O)COC(=O)c1c(OC)cccc1OC | 1.71 |
| O=C(/C=C/c1ccco1)N1CCC(Cc2ccccc2)CC1 | 4.42 |
| CCN1CCN(Cc2c(O)ccc3c2O/C(=C\c2ccc(C)cc2)C3=O)CC1 | -35.7 |

| SMILES | hERG current change (%, negative = inhibition) at 10uM [%] |
| --- | --- |
| CC1(C)CC(=O)C(C=NCCN2CCOCC2)=C(O)C1 | 18.4 |
| O=C(CNC(=O)c1ccccc1F)NCC(c1cccs1)N1CCOCC1 (stereo not drawn) | 9.13 |
| CN(C)c1ccc(NC(=O)CCN2C(=O)c3cccc([N+](=O)[O-])c3C2=O)cc1 | 4.59 |
| Cc1ccc(/C=N/NC(=O)c2ccc3nc[nH]c3c2)s1 | 14.1 |
| O=C(C=C1NCCN1)c1ccccc1 | 12.7 |
| CCc1nnc(NS(=O)(=O)c2ccc(NC(=O)c3ccccc3)cc2)s1 | 4.95 |
| CC(C)(C)c1ccc(S(=O)(=O)Nc2ccc(C(=O)N3CCCC3)cc2)cc1 | -61.9 |
| Cc1sc(NC(=O)c2ccccc2)c(C(=O)NC(C)C)c1C | 14.6 |
| C=CCOc1ccc(/C=C\c2nc(O)c([N+](=O)[O-])c(=O)[nH]2)cc1OCC | 14.5 |
| COc1ccc(C2=NN(CCC(=O)NCC3CCCO3)C(=O)CC2)cc1 (stereo not drawn) | -0.464 |
| COc1ccccc1C1CCN(Cc2cccc([N+](=O)[O-])c2)CC1 | -49.1 |
| CCC(C)(C(=O)NC1CCCC1)N(C(C)=O)c1ccc(C)cc1 (stereo not drawn) | 8.72 |
| COc1ccccc1-n1ccnc1SCC(=O)NC1CCCC1 | 17.6 |
| N#Cc1ccc(OCC(=O)N2CCN(S(=O)(=O)c3ccc(Cl)s3)CC2)cc1 | -69.5 |
| C=CCN1C(=O)/C(=C/c2cccs2)C(=O)NC1=S | 33.1 |
| C#CCOCCOCCOCCNc1nc(N2CCN(C(=O)[C@H](CCCCN)n3cc([C@@H](N)C(C)CC)nn3)CC2)nc(N2CCN(C(=O)[C@H](Cc3ccc(O)cc3)n3cc([C@@H](N)C(C)CC)nn3)CC2)n1.Cl (stereo partly drawn) | 15.3 |
| CC(=O)Nc1ccc(S(=O)(=O)NCCSCc2cccc(Cl)c2)cc1 | -1.43 |
| CC(C)(C)c1ccc(NC(=O)COC(=O)c2ccc(CN3CCCC3=O)cc2)cc1 | -30.1 |
| Cc1ccc(NC(=O)C(=O)c2ccc(C)cc2)cc1 | 14.6 |
| COC(=O)COc1cccc2c(=O)n(CC(=O)N3CCCCC3)ccc12 | 0.72 |
| CCOC(=O)C(C)On1c(SC(C)C(=O)OCC)nc2ccccc2c1=O (stereo not drawn) | -53.5 |
